These results are taken from paper PMC10726135.

Some of the results follow. At the low end of the ranking the order means little. The protein was read in a cell extract, so binding may be indirect.

This experiment deals with T1, HNF4alpha2 (COS-7 nuclear extract) (UniProt P41235).
T1 sequence: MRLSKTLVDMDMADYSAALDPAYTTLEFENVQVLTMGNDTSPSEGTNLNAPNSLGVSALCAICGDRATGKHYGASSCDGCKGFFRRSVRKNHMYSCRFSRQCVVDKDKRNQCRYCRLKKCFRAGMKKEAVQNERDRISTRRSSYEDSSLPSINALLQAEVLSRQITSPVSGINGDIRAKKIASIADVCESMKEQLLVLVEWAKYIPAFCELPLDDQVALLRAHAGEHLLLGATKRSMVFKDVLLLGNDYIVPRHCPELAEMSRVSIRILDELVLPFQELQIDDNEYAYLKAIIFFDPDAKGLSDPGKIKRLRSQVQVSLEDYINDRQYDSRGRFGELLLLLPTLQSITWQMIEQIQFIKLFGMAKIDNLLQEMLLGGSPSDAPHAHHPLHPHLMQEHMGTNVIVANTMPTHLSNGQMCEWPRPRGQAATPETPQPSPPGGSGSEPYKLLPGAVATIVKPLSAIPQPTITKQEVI
The experiment in a line: protein-binding microarray. The settings on record: COS-7 nuclear extract on double-stranded Agilent 4x180k PBM; binding buffer, salt, pH and temperature not given; high values mean tight binding; double strand, one strand shown; sequences stand for … in …GCCTAGGGAGATTAGAGTATCGGTCGA
Turning to AACAAAGATTGCTTGCCAGTTCCCTCACTG, the binding signal (log2 normalized intensity) is -1.13.
With CTTGACGCTAACTTCCAGATCAAAGGACAT the figure was 0.608; with GGAGAATGGCAAGAGATAAGGGTGGCCATC, -0.981; with TCCTTCAGCGTGAACTTTGACATGAGAGAA, 3.66.
With TGGGCTAAAAAGGAAGCTGTGTGTGTGAGT the figure was 2.18; with ATTGCCTGGCATTATCAGTGCTGCCATTTG, -1.02; with AGGTTCCTCGCCTATGGTATGTATGGAATG, 2.04.
As for ACATTTGGTGTAAGCACTTGTGGTATGTTT, the binding signal (log2 normalized intensity) came to 1.98.
With AAGAGGTTAAAGACCTTTGGGTAGGAATAG the figure was 1.24.
With CACATGCTATTATTTTCCATCAGTGGACTT the figure was 3.5; with TCTTAGGAAAGAACAGGTCAAAGGTCAGTT, 9.13; with TTTGGAAAAGATTAAGTTATCCATGGAGTG, 1.47.
In the case of ACGTGAGGGCAGCATAATCACATACAGGCC, the binding signal (log2 normalized intensity) is -0.924.
On to GAACCTGTGCTTCTGGTTCTGGACTAAGAA, for which the binding signal (log2 normalized intensity) amounted to 1.05.
Then TTCAAAGGGAAAAAATAATCAGCTTAAGCA, with -1.11.
Then CAAACATTACTGGCACACAGCAGATTACAT, with -1.01; and CTAAAATATTCACTATCTGATCCTTTACAG, with -0.264.
For the sequence ATGCCCCAAATGACGCTTTAAGTAGGCACT, the binding signal (log2 normalized intensity) is 0.412.
As to AAAATAGTGACCCTGTCTCTCAGTCTCTGT, the binding signal (log2 normalized intensity) stood at 1.2.
Then AATCCCCGAATGTCCAGACTGTGCATACCA, with 1.6; and TGGCCCTGATTTCAAAGTTCAGTTTGATTA, with 2.36.
Then AGGATCGCTTGAGCCTGGGAGGCAAAGGTT, with 2.95; and GGAGGACAGACTCTGGGAGATAAAGCAGAG, with -1.16.
CTCACGCGCTCCCTGTTTAGAATTCTGCCT: the binding signal (log2 normalized intensity) was -1.16.
For GAATCTACAGAATTCTCATGGAGGACTTTG, the binding signal (log2 normalized intensity) was 2.77.
With ATAGAGAGTTGGGAGGGAACAGTCCAGAGT the figure was 0.00927; with AGAGAGCCGGAAACTCCACCTTCAGATCAT, -1.14.
Then GACCTTGTCATACTGGTTGAATGGACGGAC, with 2.24; and GCTTGGAGCCCCTTTGGAGGGGAAGCTGGG, with -1.13.
Then CTAATGCCTGGGAAAATGTTGATTACGTGT, with 1.89; and TTCAACTATTCCTCGACCTTCGGCTGGGGA, with 1.01; and CCACCTTCCCGGCCTGGCCACTCCGTTTGC, with -0.958.
Consider CTGGGGACCCGTCGCTGCTGCACACTTCCG, for which the binding signal (log2 normalized intensity) is -1.19.
With CCTTTGGACTGTCCTTTGCTAGATTCTTTC the figure was 2.01; with GCACCTGTTTCTGGAGAATGCTGTCCTGCC, -1.07.
Turning to GCCGTCCTCAGTGAATCACAGCAGCTTCAA, the binding signal (log2 normalized intensity) is -1.06.
As to CCATTAAATCTTCCCTCCTGTGAACTCGCG, the binding signal (log2 normalized intensity) is 1.22.
As for ACTCCTACCACCAAAGAAAAAAGCCAATCT, the binding signal (log2 normalized intensity) is -0.959.
Then CTTAGCAGTGGGAGACAGGCATTAACCCTT, with 1.44.
Then GGAACAGTCCAGAGTCTGACAGAACTAAGC, with -0.851; and CAGTTTCCAGGGAGGAGAGAAGGGCTGAAG, with -0.867.
Then CCAGGAGCAGAAAGGAGGCAGAGACTGCCC, with -1.09.
Consider ACTGCTTACCCTGCAGTGTGACCTTTGCCT, for which the binding signal (log2 normalized intensity) came out at 7.83.
Then AGTAGGATTTCTAGTTAATATCTAAGATGT, with 1.01; and ACATGCTGTCTAGGCCAGAGTTCACTTTCC, with 2.11.
As for GAGGAATGCTGGTAAACACTGAGCTTTCAT, the binding signal (log2 normalized intensity) is -0.989.
TCCTCTCTCCCACAAGGGCAGCCCTGTTTA: the binding signal (log2 normalized intensity) was -0.0809.
Then AGACAAAAGTCCGGAATTTCCTCCTGGCAG, with -1.13.
For the sequence TAGCCCTGAACAAACAGCTTCCAGAATAGC, the binding signal (log2 normalized intensity) is -1.25.
Then GAGCCACTTCACTGGTGTGATCTTTTTTCT, with 0.757; and GACTGGAAGTTGCCCGAGCTGCCCTTTATC, with 2.47.
With AAATAGCTCAAGCCTGTTCCGACCTTAGTA the figure was 1.41; with CGGACAGGCATTAGCAATGCGAGAGTACAC, -0.0112.
Then CTGCCTAGTTTTGTAACTTAAAGATCATGT, with 1.81.
As to GCATCTGGGGGCTTGTCAGACAAGTTGCAG, the binding signal (log2 normalized intensity) was -1.35.
With CTTGCCTCTGTGCTCCCAGTTCCCTCATTA the figure was 1.26; with CTCCGGGTAAAGGTGAAGGCTGACCACGGG, -1.15; with ATATGTTCGGGAGACATGTGGCCTTTGGTA, 3.02.
With CCTCTTTCAAGCCTGAACAAACATGAGGGA the figure was -0.186; with TGCTGACCTTTGTTCACATTTGTGCTCAGC, 3.43.
With ACATGCCTATGACCGAGGGTTAAGCTCATG the figure was -0.22; with TTGGACCACAGAGTGACCTGGTATTGCAAG, 1.66.
For the sequence GTAAGATAAGGTGAACATACGTGGCTACCT, the binding signal (log2 normalized intensity) was -1.11.
With AGAACCTGCCCATGACCTTTGGACTGTGAC the figure was 9.54; with CAATGCCACAGAAAAGGCAGCAGCTTGGAA, -1.17.
With AGCAGAAAGGAGGCAGAGACTGCCCTGAGC, the binding signal (log2 normalized intensity) was -1.27.
Regarding GGAAATTACCCTCTAATGGTATTCACTTTA, the binding signal (log2 normalized intensity) came to 0.723.
Then ATGGACTTTGAAGGAGATTCCTGTGTCAGC, with 0.984.
Then TGGAGATAACAGTGTAAGGACATTGCCCCC, with 5.41.
Regarding TTTGCAATCCTCCACTCTCCAAAATAGGGT, the binding signal (log2 normalized intensity) came to 0.728.
Then ACACTTGTACATACTTTTGGGGTATGTGTG, with 2.3; and TGAACTTTGCCTTAGGCCATTGTCCTTTGG, with 2.85; and CAGCAGCTATCAGTGGTCCGAACTACAGGG, with -1.06.
